PubChem BioAssay AID1508624 (National Center for Advancing Translational Sciences (NCATS), 2021)
Among all 48,000 compounds or so, about 120 (0.25%) were called active. Roughly 4% stayed inconclusive and do not appear here. The call rests on the fitted dose curve; in most records, active means well fitted activation curve with a large enough effect; inconclusive means small, poorly fitted or top-dose-only effect, or another doubt; inactive means no such curve, though single readings can be large or run the other way. The list shows a part of the results.

Assay: Primary qHTS for Identification of Small Molecule Activators of Huntingtin-Antisense Promoter Activity; further: nearly all actives have a fitted effect of over 55% in size
Settings: HEK293 HTT-AS promoter firefly luciferase reporter (activity 0% = vehicle and -100% = no light), 24 h; series mostly up to 57.5 µM; activity change, positive = activation: at the top concentration
Summary of the method: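 Quantitative HTS used concentration series of up to 57.5 uM final on HEK293 luciferase reporter cells, 24 h at 37 degrees C. Readout was Dual-Glo firefly luminescence.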

Row | Structure (SMILES) | activity change, positive = activation
1 | Cc1ccccc1OCC(=O)OCc1cc(=O)n2nc(-c3cccs3)sc2n1 | inactive: 6.99%
2 | Cn1c(C(=O)Nc2ccc(OC(F)(F)F)cc2)cc2c(=O)n3ccccc3nc21 | inactive: -13.1%
3 | COc1ccccc1CNC(=O)c1nnn(CC(=O)Nc2c(C)cccc2C)c1N | inactive: -3.22%
4 | CC(=O)c1ccc(N2CCN(c3ncnc4c3cnn4-c3cc(Cl)ccc3C)CC2)cc1 | inactive: -43.8%
5 | Cc1ccc(CNC(=O)CN2N=C(c3ccccc3)CCC2=O)cc1 | inactive: -3.42%
6 | Cc1cccc(CSc2nnc3[nH]c(=O)cc(-c4ccccc4)n23)c1 | inactive: 7.67%
7 | COc1cc(-c2nc3ccc(Cl)cn3c2Nc2ccc3c(c2)OCCO3)ccc1O | inactive: -9.32%
8 | O=C(c1ccc2c(c1)N(Cc1ccc(Cl)cc1)C(=O)c1ccccc1S2(=O)=O)N1CCN(c2ccccn2)CC1 | inactive: -36.7%
9 | Cc1cc(NC(=O)C2CCCN(S(=O)(=O)c3cccc4nsnc34)C2)ccc1Br (stereo not given) | inactive: 1.79%
10 | O=C(Nc1cc(Cl)cc(Cl)c1)c1ccc(F)c(S(=O)(=O)N2CCN(c3ccccc3F)CC2)c1 | inactive: -1.67%
11 | CCOc1ccc(NC(=O)N2CCC(N3CCCCC3)CC2)cc1 | inactive: 4.57%
12 | Cc1ccc(NC(=O)COc2ccc3oc4c(c3c2)CCCC4)cc1C | inactive: -5.73%
13 | CNC(=O)c1ccc2c(C(=Nc3cccc(CN(C)C)c3)c3ccccc3)c(O)[nH]c2c1 | inactive: -66%
14 | Cc1ccc(CN2COc3c(Cl)cc4c(-c5ccccc5)cc(=O)oc4c3C2)cc1 | inactive: -10.8%
15 | CCOc1ccccc1NC(=O)Cn1c(=O)n(C(C)C)c(=O)c2oc3ccccc3c21 | inactive: -10.6%
16 | COc1ccc(-n2c(=O)c3ccc(C(=O)NCc4ccc(C)cc4)cc3n(Cc3ccc(Cl)cc3)c2=O)cc1 | inactive: -12.6%
17 | COc1ccc(-n2nc3c(N4CCCC(C(=O)NCCc5ccccc5C)C4)nnc(C)c3c2C)cc1 (stereo not given) | inactive: -22.3%
18 | COCCn1c(C)cc(O)c(C(c2ccc(F)cc2)N2CCC(C)CC2)c1=O (stereo not given) | inactive: 5.94%
19 | Cc1ccc(N(CC(=O)Nc2ccc(C)c(Cl)c2)S(=O)(=O)c2cccs2)cc1 | inactive: -9.95%
20 | COc1cccc(NC(=O)Cn2c(=O)n(-c3ccccc3)c(=O)c3c2c2cc(OC)ccc2n3C)c1 | inactive: -25.1%

Row | Structure (SMILES) | activity change, positive = activation
21 | O=S(=O)(c1ccc(-c2cnc(C3CC3)o2)cc1)N1CCN(c2ccccc2)CC1 | inactive: 18.2%
22 | Cn1cc(S(=O)(=O)N2CCOCC2)cc1C(=O)Nc1cccc(C#N)c1 | inactive: -10.2%
23 | COc1ccc(C2c3c(n(C)c4ccccc34)C(=O)N2CC(=O)Nc2ccc(F)cc2)cc1 (stereo not given) | inactive: -19.1%
24 | CCC(=O)N1CCc2cc(OC)c(OC)cc2C1COc1ccc2c(C)cc(=O)oc2c1 (stereo not given) | inactive: 8.31%
25 | CCCCn1c(=N)n(CCOc2ccccc2OC)c2ccccc21 | inactive: -34.6%
26 | Cc1ccc(C(=O)c2oc3ccccc3c2NC(=O)Cc2ccccc2)cc1 | inactive: -10%
27 | Cc1ccc(CSc2nc(-c3ccccc3C)nc3c2Cc2c(CO)cnc(C)c2O3)cc1 | inactive: -5.44%
28 | COc1ccc(-c2ccc(=O)n(CC(=O)Nc3ccc(OC)c(OC)c3)n2)cc1 | inactive: -14.9%
29 | CCOc1ccc(-c2nc(SCC(=O)Nc3cc(F)ccc3F)n3[nH]c(=O)cc3n2)cc1 | inactive: -3.46%
30 | CCn1nnc2cc(C(=O)Nc3ccc(Br)cc3F)ccc21 | inactive: 36.4%
31 | Cn1ncc2c(NCc3ccc(F)cc3)ncnc21 | inactive: -1.04%
32 | CCOC(=O)c1c(S(=O)(=O)N2CCC(C(=O)N3CCN(c4ccc(F)cc4)CC3)CC2)c(C)n(C)c1C | inactive: -10.6%
33 | O=c1[nH]c2ccccc2n1CCCN1CCN(C(c2ccccc2)c2ccccc2)CC1 | inactive: -30.9%
34 | Cc1ccc(NC(=O)C2CCCN2S(=O)(=O)c2ccc3c(c2)n(C)c(=O)c(=O)n3C)cc1C (stereo not given) | inactive: -5.62%
35 | O=C1N(Cc2ccccc2)c2ccccc2C1(O)c1c[nH]c2ccccc12 (stereo not given) | inactive: -16%
36 | Cn1c(=O)c2c(SCC(=O)N3CCc4ccccc43)nc(-c3ccc(Cl)cc3)nc2n(C)c1=O | inactive: -3.96%
37 | O=C(CN1C(=O)COc2ccc(S(=O)(=O)N3CCOCC3)cc21)N1CCN(c2ccccc2F)CC1 | inactive: -20.4%
38 | CCc1cccc(NC(=O)c2c(C)oc3nc(C)nc(N4CCCC4)c23)c1 | inactive: -14.1%
39 | Cc1ccc(NC(=O)C(=O)NCC2(c3ccccc3)CCCC2)cc1C | inactive: 29.2%
40 | Nc1nc2ncc(CNc3ccc(C(=O)N[C@@H](CCC(=O)O)C(=O)O)cc3)nc2c(=O)[nH]1 | inactive: -2.96%

Row | Structure (SMILES) | activity change, positive = activation
41 | CCCOc1ccc(CNC(=O)CN2C(=O)c3cccnc3Oc3ccc(C)cc32)cc1 | inactive: -12.7%
42 | COC(=O)C1CCN(c2csc3ccc(Cl)cc3c2=O)CC1 | inactive: 16.7%
43 | CCC[C@H](N[C@@H](C)C(=O)N1[C@@H]2CCCC[C@H]2C[C@H]1C(=O)O)C(=O)OCC | inactive: -2.02%
44 | O=C(NCCCO)c1nn(-c2ccc(Cl)cc2)nc1CO | inactive: 0.786%
45 | CCc1ccc(OCc2cc(=O)n3cc(C)sc3n2)cc1 | inactive: -0.0969%
46 | CCOc1ccc2oc(=O)cc(CN3CCN(c4ccccc4OC)CC3)c2c1 | inactive: -20.3%
47 | COc1cc(OC)c(OC)cc1CNCCCSc1nnnn1C | inactive: 0.362%
48 | COc1cccc(NC(=O)Cn2c(=O)n(CCc3ccc(OC)c(OC)c3)c(=O)c3ccccc32)c1 | inactive: -12.2%
49 | CCc1ccc(NCc2cc3ccc(OC)cc3n(CC(=O)Nc3ccc(C)c(Cl)c3)c2=O)cc1 | inactive: -0.078%
50 | COc1ccc(C(=O)N(Cc2cc(OC)c(OC)c(OC)c2)C2CCS(=O)(=O)C2)cc1Cl (stereo not given) | inactive: 8.03%
51 | COc1cc(OC)c(N(C)C(=O)c2sc3nc4n(c(=O)c3c2C)CCCCC4)cc1Cl | inactive: 5.94%
52 | Cc1cc(Nc2cc(F)ccc2C)nc(-n2nc(C)cc2C)n1 | inactive: -33.3%
53 | COc1cc(NC(=O)Cn2nc3c(cc2=O)CC(C)CC3)cc(OC)c1OC (stereo not given) | inactive: -16.4%
54 | CN(C)S(=O)(=O)N(CC(=O)NCCSc1ccccc1)c1ccccc1 | inactive: -16.9%
55 | CC(C)N(Cc1ccccc1)C(=O)CN1C(=O)CSc2ccc(S(=O)(=O)N3CCCC3)cc21 | inactive: -37.6%
56 | Cc1c(C(=O)N2CCC(C)CC2)c(S(=O)(=O)Nc2ccc(OC(F)(F)F)cc2)c(C)n1C | inactive: -23.3%
57 | CCn1cc(C(=O)N2CCN(c3ccc(OC)cc3)CC2)c(=O)c2cc(S(=O)(=O)N3CCOCC3)ccc21 | inactive: -3%
58 | COc1ccc2[nH]cc(CCN=C(NC(=O)c3ccccc3C)Nc3nc(C)cc(C)n3)c2c1 | inactive: 8.76%
59 | O=C(Nc1ccc(C(F)(F)F)cc1)C(Cc1ccccc1)n1cccc1 (stereo not given) | inactive: -31.7%
60 | O=C(NCCCN1CCN(c2ccccc2F)CC1)c1ccc2nc(N3CCCCC3)sc2c1 | inactive: -55.5%
